This is an account of results in a collection of fitness landscapes (doi:10.1126/science.1257360).

Some of the results follow.

B1: PhoQ; a variant is named by its letters at X, in order, P23837 (parent)
chain: MKKLLRLFFPLSLRVRFLLATAAVVLVLSLAYGMVALIGYSVSFDKTTFRLLRGESNLFYTLAKWENNKLHVELPENIDKQSPTMTLIYDENGQLLWAQRDVPWLMKMIQPDWLKSNGFHEIEADVNDTSLLLSGDHSIQQQLQEVREDDDDAEMTHSVAVNVYPATSRMPKLTIVVVDTIPVELKSSYMVWSWFIYVLSANLLLVIPLLWVAAWWSLRPIEALAKEVRELEEHNRELLNPATTRELTSLVRNLNRLLKSERERYDKYRTTLTDLTHSLKTPLXXLQXXLRSLRSEKMSVSDAEPVMLEQISRISQQIGYYLHRASMRGGTLLSRELHPVAPLLDNLTSALNKVYQRKGVNISLDISPEISFVGEQNDFVEVMGNVLDNACKYCLEFVEISARQTDEHLYIVVEDDGPGIPLSKREVIFDRGQRVDTLRPGQGVGLAVAREITEQYEGKIVAGESMLGGARMEVIFGRQHSAPKDE

Variants of B1 are the subject of the assay. Briefly: enrichment ratio after two sorts for PhoP signalling (ratio (wild type AVST 3.29)); higher = more functional. Particulars: with PhoP (E. coli).
In the case of IDTW, the enrichment ratio was no more than 0.25. The value for RAVP was no more than 0.25; that for TWLW was no more than 0.25; that for MNHS was 1.1.

In the case of QDIN, the enrichment ratio is no more than 0.25.

As to TANN, the enrichment ratio came out at 3.35. For the variant ISMH, the enrichment ratio is no more than 0.25. Consider ENYI, for which the enrichment ratio was no more than 0.25. With RKKQ, the enrichment ratio was no more than 0.25. With IHSD, the enrichment ratio is no more than 0.25. Take VGVA: the enrichment ratio was no more than 0.25. As for DFRS, the figure is no more than 0.25; as for ACNM, no more than 0.25. As for PVRM, the figure is no more than 0.25. As for DNDL, the figure is no more than 0.25; as for SWNT, no more than 0.25.

In the case of MSHH, the enrichment ratio is no more than 0.25. The value for SKAR was no more than 0.25; that for MGLL was 14.3. Consider PYQY, for which the enrichment ratio is no more than 0.25. Regarding WREA, the enrichment ratio is no more than 0.25. Turning to NYPG, the enrichment ratio is no more than 0.25. As for QIPS, the figure is no more than 0.25. As for YLDG, the figure is no more than 0.25; as for FSND, no more than 0.25. As for WPVT, the figure is no more than 0.25; as for LIHT, no more than 0.25.

With RRVY, the enrichment ratio is no more than 0.25. The value for HMPR was no more than 0.25. The value for IKLW was no more than 0.25. The value for ERWW was no more than 0.25; that for VHVQ was no more than 0.25. In the case of DQLG, the enrichment ratio is no more than 0.25. The value for GPCQ was no more than 0.25; that for LWHM was no more than 0.25. With LCLW, the enrichment ratio was no more than 0.25. Consider MWIS, for which the enrichment ratio is no more than 0.25. As for PYSR, the figure is no more than 0.25; as for KDHP, no more than 0.25. Turning to VMAY, the enrichment ratio is no more than 0.25. As for AHFV, the figure is no more than 0.25. For KCYH, the enrichment ratio is no more than 0.25. As for QVYQ, the figure is no more than 0.25; as for SIDS, no more than 0.25. The value for MQLD was no more than 0.25. The value for QGWE was 14.3; that for FWDP was no more than 0.25.

For ERQD, the enrichment ratio was no more than 0.25. The value for PFCN was no more than 0.25; that for FKWY was no more than 0.25; that for SYCF was no more than 0.25. As for TANK, the figure is no more than 0.25; as for FFTC, no more than 0.25. As to KNLA, the enrichment ratio is no more than 0.25. In the case of VVFL, the enrichment ratio was no more than 0.25. The value for NSPQ was no more than 0.25.

As to LTGA, the enrichment ratio is no more than 0.25. As for DPPI, the figure is no more than 0.25; as for AGKW, no more than 0.25; as for SMWI, no more than 0.25. The value for KGLF was no more than 0.25; that for TEWY was 0.326; that for MTMD was no more than 0.25. As for PCHD, the figure is no more than 0.25. As for MPWW, the enrichment ratio was no more than 0.25. With PPAL, the enrichment ratio is no more than 0.25.

Regarding PCVG, the enrichment ratio is no more than 0.25. The value for CFAV was no more than 0.25; that for AIVR was 8.99; that for IQKG was no more than 0.25. The value for FWVA was no more than 0.25; that for HMSE was no more than 0.25; that for KTCG was no more than 0.25. On to LWSR, for which the enrichment ratio was no more than 0.25. As for NNQE, the figure is no more than 0.25; as for NPDK, no more than 0.25.

FQTR: the enrichment ratio is no more than 0.25. The value for NTLY was no more than 0.25; that for VYQN was no more than 0.25; that for EEGS was no more than 0.25. QAQR: the enrichment ratio is no more than 0.25.

KMLK: the enrichment ratio is no more than 0.25.

For ETTN, the enrichment ratio was no more than 0.25. As for EYAC, the figure is no more than 0.25; as for PEPC, no more than 0.25; as for HESQ, no more than 0.25. Turning to SGQS, the enrichment ratio was 3.13. As for GSIL, the enrichment ratio stood at 7.92.

Consider IDTY, for which the enrichment ratio is no more than 0.25. As for KFFG, the figure is no more than 0.25. As for TTTE, the figure is 4.58; as for QIKH, no more than 0.25.

For the variant ALAP, the enrichment ratio was no more than 0.25. As for AQKV, the figure is no more than 0.25.

For the variant GIFC, the enrichment ratio is no more than 0.25.

On to RCGQ, for which the enrichment ratio was no more than 0.25. RTMM: the enrichment ratio is no more than 0.25. As for QKMG, the figure is no more than 0.25; as for ISQD, no more than 0.25; as for EPTY, no more than 0.25. The value for LAKH was no more than 0.25; that for YYEI was no more than 0.25. On to IRPG, for which the enrichment ratio was no more than 0.25.

Consider RTCM, for which the enrichment ratio was no more than 0.25. For KTHA, the enrichment ratio is no more than 0.25. As for YQWE, the figure is no more than 0.25; as for NCHF, no more than 0.25. On to DPCD, for which the enrichment ratio is no more than 0.25.

Turning to KDQG, the enrichment ratio is no more than 0.25. For the variant MIKA, the enrichment ratio is no more than 0.25. With MLDF, the enrichment ratio is no more than 0.25. The value for PCQW was no more than 0.25; that for SVYS was 0.435; that for QDIF was no more than 0.25. The value for CTLV was 0.326; that for DLNI was no more than 0.25; that for IIFE was no more than 0.25. The value for IWKH was no more than 0.25. PKRI: the enrichment ratio was no more than 0.25. On to RESF, for which the enrichment ratio was no more than 0.25. On to WIML, for which the enrichment ratio is no more than 0.25.

On to MVIY, for which the enrichment ratio is no more than 0.25. As for HKRG, the figure is no more than 0.25; as for KVTA, no more than 0.25. Consider VECW, for which the enrichment ratio was no more than 0.25.

Turning to ELEI, the enrichment ratio was no more than 0.25.

For YCSH, the enrichment ratio is 0.253.

On to IGPL, for which the enrichment ratio was no more than 0.25.

With LQDS, the enrichment ratio is no more than 0.25.

For NKAK, the enrichment ratio was no more than 0.25.

Turning to SCHL, the enrichment ratio is no more than 0.25. The value for YNWF was no more than 0.25; that for FHNL was no more than 0.25. As for FLQY, the figure is no more than 0.25. As for YKMR, the figure is no more than 0.25. With FDAF, the enrichment ratio is no more than 0.25. As for EDPV, the figure is no more than 0.25. Take ILAQ: the enrichment ratio was no more than 0.25.

With QPNQ, the enrichment ratio is no more than 0.25. TAAV: the enrichment ratio was 6.65. As for SGYH, the enrichment ratio was no more than 0.25. As for ERTG, the enrichment ratio is no more than 0.25. As to NLSY, the enrichment ratio is no more than 0.25. ITHS: the enrichment ratio is no more than 0.25.

Consider ECSY, for which the enrichment ratio was no more than 0.25. As for LETE, the figure is no more than 0.25; as for AFTI, no more than 0.25; as for HGTP, no more than 0.25. In the case of GSWC, the enrichment ratio is no more than 0.25. The value for FEAC was no more than 0.25. As for AYVW, the figure is no more than 0.25; as for FVPQ, no more than 0.25.

Turning to FAEH, the enrichment ratio is no more than 0.25.

With YSPA, the enrichment ratio is no more than 0.25. As for DHVE, the figure is no more than 0.25; as for GDDN, no more than 0.25. As for SVND, the figure is no more than 0.25. Turning to MMHV, the enrichment ratio is no more than 0.25. As for MNTG, the figure is no more than 0.25; as for NEVE, no more than 0.25; as for VTVR, no more than 0.25. As to PYMM, the enrichment ratio was no more than 0.25. The value for SFFG was no more than 0.25. Consider NHDH, for which the enrichment ratio is no more than 0.25. Take FAFD: the enrichment ratio is no more than 0.25. The value for LLDQ was no more than 0.25; that for SVFV was no more than 0.25; that for ELFR was no more than 0.25.

DACK: the enrichment ratio was no more than 0.25. As for DTHP, the figure is no more than 0.25; as for IIFS, no more than 0.25. For NKFN, the enrichment ratio was no more than 0.25.

For the variant FRCQ, the enrichment ratio is no more than 0.25. For YPHC, the enrichment ratio was no more than 0.25. For QVWC, the enrichment ratio is no more than 0.25. On to NGDA, for which the enrichment ratio was no more than 0.25. As for FLYH, the figure is no more than 0.25; as for SKWN, no more than 0.25. For the variant KFTK, the enrichment ratio is no more than 0.25. As for LARN, the figure is no more than 0.25; as for QLFM, no more than 0.25. The value for FISH was no more than 0.25. Consider YTFP, for which the enrichment ratio is no more than 0.25. As for WMCR, the figure is no more than 0.25. Turning to WTHS, the enrichment ratio is no more than 0.25.

For LCSP, the enrichment ratio is no more than 0.25.

Take FCCD: the enrichment ratio is no more than 0.25.

On to YLPA, for which the enrichment ratio is no more than 0.25.

Consider RHNT, for which the enrichment ratio is no more than 0.25. Regarding AKCF, the enrichment ratio was determined as 1.73. Regarding RHWE, the enrichment ratio was no more than 0.25. Regarding WGHR, the enrichment ratio was no more than 0.25. The value for KCKH was no more than 0.25; that for YYDE was no more than 0.25; that for LYGV was no more than 0.25.
